Experimental findings from the BET-seq Pho4 binding data (Le et al. 2018) are described below.

The other results are listed elsewhere or left out. Values were computed here from the reads of four pooled replicates and scatter widely.

The target in the assay is T1, Pho4 (S. cerevisiae) (UniProt P07270).
T1 sequence: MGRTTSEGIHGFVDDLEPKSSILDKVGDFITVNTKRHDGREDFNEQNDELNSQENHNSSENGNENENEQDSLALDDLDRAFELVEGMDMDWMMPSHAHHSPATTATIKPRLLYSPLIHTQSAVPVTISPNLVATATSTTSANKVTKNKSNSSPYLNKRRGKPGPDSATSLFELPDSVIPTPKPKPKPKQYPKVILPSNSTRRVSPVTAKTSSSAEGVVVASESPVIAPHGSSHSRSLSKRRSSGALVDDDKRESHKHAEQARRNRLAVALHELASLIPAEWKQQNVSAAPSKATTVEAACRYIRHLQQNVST
Nature of the assay: relative binding free energy (BET-seq); higher = weaker binding. The settings on record: reference: library average.
Take GTTTACACGTGAGTTC: the “relative binding free energy” value stood at 0.35 kcal/mol.

For the sequence GGTCTCACGTGTGCAG, the “relative binding free energy” value was determined as 0.34 kcal/mol.

Consider TACCGCACGTGTGGTG, for which the “relative binding free energy” value is -0.1 kcal/mol.

As to GTCTACACGTGTGGTT, the “relative binding free energy” value stood at 0.21 kcal/mol.

As for TACGTCACGTGAGGGT, the “relative binding free energy” value is 0.18 kcal/mol.

TTGGGCACGTGGCACA: the “relative binding free energy” value was -0.07 kcal/mol.

On to TAGCGCACGTGTGTTA, for which the “relative binding free energy” value is -0.07 kcal/mol.

On to TATAGCACGTGCGTTG, for which the “relative binding free energy” value was -0.19 kcal/mol.

On to TTGTTCACGTGTCGGA, for which the “relative binding free energy” value is 0.31 kcal/mol.

Turning to TGTAACACGTGTGTGC, the “relative binding free energy” value is -0.19 kcal/mol.

Turning to GTCGTCACGTGAGGTA, the “relative binding free energy” value was 0.31 kcal/mol.

AGAGTCACGTGGCGTC: the “relative binding free energy” value stood at 0.02 kcal/mol.

For the sequence TTGGACACGTGACGTT, the “relative binding free energy” value is 0.19 kcal/mol.

For AGGCCCACGTGATGTG, the “relative binding free energy” value stood at 0.18 kcal/mol.

For GAGACCACGTGGTGGG, the “relative binding free energy” value was -0.04 kcal/mol.

CAACGCACGTGTGGGG: the “relative binding free energy” value is -0.09 kcal/mol.

Take TCGGGCACGTGTCGGG: the “relative binding free energy” value stood at 0.04 kcal/mol.

Turning to TAAGGCACGTGGGAGA, the “relative binding free energy” value is -0.27 kcal/mol.

In the case of GATGCCACGTGGAGTG, the “relative binding free energy” value was -0.01 kcal/mol.

With TGGAGCACGTGGTGCC, the “relative binding free energy” value was -0.17 kcal/mol.

Consider TTGTTCACGTGCATCT, for which the “relative binding free energy” value was determined as 0.16 kcal/mol.

For the sequence ATTTTCACGTGTGTAT, the “relative binding free energy” value was 0.22 kcal/mol.

As for ATGATCACGTGATTAG, the “relative binding free energy” value was 0.34 kcal/mol.

For the sequence GTGAACACGTGTGAGT, the “relative binding free energy” value is 0.12 kcal/mol.

On to GGTCCCACGTGGGGGC, for which the “relative binding free energy” value is -0.19 kcal/mol.

For AAGGGCACGTGATTAG, the “relative binding free energy” value was -0.09 kcal/mol.

Regarding AGACGCACGTGGGGAT, the “relative binding free energy” value is -0.13 kcal/mol.

Regarding TCATTCACGTGATTTG, the “relative binding free energy” value is 0.4 kcal/mol.

Take GGAATCACGTGGGTCA: the “relative binding free energy” value was found to be 0.08 kcal/mol.

In the case of TCAGTCACGTGGGTGT, the “relative binding free energy” value was -0.05 kcal/mol.

In the case of AGAGTCACGTGGCGCT, the “relative binding free energy” value was determined as 0.06 kcal/mol.

On to TGTAACACGTGTTCAG, for which the “relative binding free energy” value is -0.03 kcal/mol.

Consider ATGGGCACGTGTTTCA, for which the “relative binding free energy” value is -0.1 kcal/mol.

Regarding CAATGCACGTGGTGTA, the “relative binding free energy” value is -0.22 kcal/mol.

On to TTTTGCACGTGATACT, for which the “relative binding free energy” value was -0.05 kcal/mol.

In the case of AGTGTCACGTGAGGCG, the “relative binding free energy” value is 0.33 kcal/mol.

On to TCACTCACGTGGGGGT, for which the “relative binding free energy” value is 0.19 kcal/mol.

With TAGGGCACGTGGCCTG, the “relative binding free energy” value was -0.21 kcal/mol.

Turning to CATGACACGTGTGGTC, the “relative binding free energy” value is 0.19 kcal/mol.

On to TTTTACACGTGGAGGG, for which the “relative binding free energy” value was 0.08 kcal/mol.

With GTTTGCACGTGACGTT, the “relative binding free energy” value is 0.12 kcal/mol.

As to TCTGGCACGTGGTAGG, the “relative binding free energy” value is -0.13 kcal/mol.

Regarding GTAGACACGTGGCTTG, the “relative binding free energy” value is -0.01 kcal/mol.

In the case of GCGGGCACGTGGGTGG, the “relative binding free energy” value was -0.21 kcal/mol.

As for TGTTTCACGTGGAAAT, the “relative binding free energy” value worked out at 0.2 kcal/mol.

Consider TTTCGCACGTGGGTTA, for which the “relative binding free energy” value was -0.07 kcal/mol.

For the sequence AGTGGCACGTGAAGGC, the “relative binding free energy” value stood at 0.13 kcal/mol.

In the case of TGGAGCACGTGGAGAT, the “relative binding free energy” value is 0.05 kcal/mol.

GCGAGCACGTGAGGGA: the “relative binding free energy” value came out at 0.26 kcal/mol.

Take ATTGACACGTGAGGGG: the “relative binding free energy” value came out at 0.21 kcal/mol.

Turning to TACATCACGTGTGAGT, the “relative binding free energy” value came to 0.31 kcal/mol.

Consider TGGGTCACGTGGTCGC, for which the “relative binding free energy” value was -0.01 kcal/mol.

Regarding TAAGGCACGTGGGAGG, the “relative binding free energy” value was -0.14 kcal/mol.

Turning to TTTAACACGTGGCTGT, the “relative binding free energy” value was -0.06 kcal/mol.

Take GTTTACACGTGATTTG: the “relative binding free energy” value stood at 0.23 kcal/mol.

Regarding GTATACACGTGTTGTA, the “relative binding free energy” value stood at 0 kcal/mol.

Take TGATTCACGTGTAAGG: the “relative binding free energy” value was determined as 0.32 kcal/mol.

Turning to GGAAACACGTGAAGGG, the “relative binding free energy” value was 0.23 kcal/mol.

As to TAGGTCACGTGGGCAC, the “relative binding free energy” value was found to be 0.05 kcal/mol.

On to ATTTTCACGTGTGTCG, for which the “relative binding free energy” value turned out to be 0.32 kcal/mol.

As to AGCTGCACGTGTATGT, the “relative binding free energy” value is -0.06 kcal/mol.

Take CGAGACACGTGGTTGT: the “relative binding free energy” value is -0.06 kcal/mol.

As to TAGTTCACGTGGAGGA, the “relative binding free energy” value was 0.24 kcal/mol.

For TGTATCACGTGGATCG, the “relative binding free energy” value was found to be 0.09 kcal/mol.

For the sequence TTTCGCACGTGTTTAA, the “relative binding free energy” value was -0.05 kcal/mol.

Consider AGGTGCACGTGGCAGA, for which the “relative binding free energy” value was -0.08 kcal/mol.

Regarding CATTTCACGTGGTTTT, the “relative binding free energy” value stood at 0.08 kcal/mol.

Turning to GTGCTCACGTGTATGG, the “relative binding free energy” value worked out at 0.18 kcal/mol.

In the case of TTTCTCACGTGCGTAG, the “relative binding free energy” value is 0.36 kcal/mol.

As to TGTCTCACGTGCAGGG, the “relative binding free energy” value is 0.2 kcal/mol.

For the sequence TTAGTCACGTGCAATG, the “relative binding free energy” value turned out to be 0.07 kcal/mol.

Regarding TTGTGCACGTGTATTC, the “relative binding free energy” value stood at 0.13 kcal/mol.

As to TTTGTCACGTGAAGCA, the “relative binding free energy” value was 0.3 kcal/mol.
